Results: article PMC4336329 (PLoS ONE, 2015)
Among all 310,000 compounds or so, about 2,200 (0.71%) showed an effect of 50% or more. The effect is printed as a negative number. The list shows a part of the results.

Each molecule was assayed against human ether-à-go-go-related gene (hERG) potassium channel (human, UniProt Q12809) (assay: primary screen, population patch clamp on CHO cells stably expressing hERG).
Sequence of human ether-à-go-go-related gene (hERG) potassium channel (Q12809 whole entry, looked up): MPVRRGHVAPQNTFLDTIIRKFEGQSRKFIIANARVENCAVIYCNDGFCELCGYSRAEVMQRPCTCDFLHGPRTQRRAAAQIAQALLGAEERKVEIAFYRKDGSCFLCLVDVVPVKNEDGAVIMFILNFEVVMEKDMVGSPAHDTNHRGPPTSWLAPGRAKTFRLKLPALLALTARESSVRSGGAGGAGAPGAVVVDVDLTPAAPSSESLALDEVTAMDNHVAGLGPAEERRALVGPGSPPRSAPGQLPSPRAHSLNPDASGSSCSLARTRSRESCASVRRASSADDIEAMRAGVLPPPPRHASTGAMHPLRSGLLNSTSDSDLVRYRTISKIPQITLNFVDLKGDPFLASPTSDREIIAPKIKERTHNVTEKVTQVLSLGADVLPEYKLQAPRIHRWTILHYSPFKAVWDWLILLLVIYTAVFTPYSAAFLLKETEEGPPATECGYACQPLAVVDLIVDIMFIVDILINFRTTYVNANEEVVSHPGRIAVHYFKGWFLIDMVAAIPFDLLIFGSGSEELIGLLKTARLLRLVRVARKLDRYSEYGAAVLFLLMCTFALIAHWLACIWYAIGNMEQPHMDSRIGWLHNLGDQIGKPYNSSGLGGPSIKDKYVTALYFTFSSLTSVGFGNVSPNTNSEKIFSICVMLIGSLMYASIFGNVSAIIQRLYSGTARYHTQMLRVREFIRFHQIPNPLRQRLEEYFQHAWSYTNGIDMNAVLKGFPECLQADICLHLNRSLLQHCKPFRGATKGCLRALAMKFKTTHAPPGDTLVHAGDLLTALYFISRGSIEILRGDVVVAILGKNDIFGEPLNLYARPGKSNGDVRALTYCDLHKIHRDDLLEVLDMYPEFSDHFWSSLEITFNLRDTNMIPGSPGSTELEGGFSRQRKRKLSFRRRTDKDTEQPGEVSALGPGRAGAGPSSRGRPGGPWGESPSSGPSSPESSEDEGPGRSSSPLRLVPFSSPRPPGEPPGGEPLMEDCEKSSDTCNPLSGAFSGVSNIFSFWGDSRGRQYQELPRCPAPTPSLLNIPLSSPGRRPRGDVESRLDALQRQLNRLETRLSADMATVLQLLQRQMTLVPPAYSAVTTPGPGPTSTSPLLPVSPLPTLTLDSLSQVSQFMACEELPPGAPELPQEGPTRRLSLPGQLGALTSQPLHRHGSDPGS

| Compound | hERG current change (%, negative = inhibition) at 1uM |
| --- | --- |
| C=C(C)COc1ccc(-c2ncncc2-c2ccc(OC)cc2)c(O)c1 | 19.1% |
| Cc1nc2ccc(NC(=O)c3cccc(S(=O)(=O)N(C)c4ccccc4)c3)cc2s1 | 8% |
| O=C(NNS(=O)(=O)c1ccc2ccccc2c1)NC1CCCCC1 | -0.731% |
| C/[N+]([O-])=C1\Cc2ccccc2C1=O | 7.59% |
| O=C(CSc1n[nH]c(-c2ccncc2)n1)Nc1ccc(F)cc1 | 11.6% |
| Cc1ccc(C(=O)c2ccc(CC(=O)[O-])n2C)cc1.O.[Na+] | 13.6% |
| CCc1cccc(C)c1NC(=O)CSc1nc2ccc(N3C(=O)c4ccccc4C3=O)cc2s1 | 9.97% |
| COc1ccc(CN(C)CC(=O)Nc2ccccc2C(=O)NC2CC2)cc1 | -0.648% |
| Cc1c(C)[n+](=O)c2c(n1[O-])CCC2 | -9.81% |
| O=C1CCCc2[nH]nc(-c3cccnc3)c21 | 11.2% |
| O=C(COc1ccc(F)cc1Br)NCC1(N2CCOCC2)CCCCC1 | 0.472% |
| C=CCON/C(CCC)=C1\C(=O)C(C(=O)OC)C(C)(C)CC1=NC (stereo not drawn) | 14.9% |
| COc1cc(S(=O)(=O)N(Cc2ccc(C)cc2)C2CCCCC2)ccc1-n1cnnn1 | -2.32% |
| O=S1(=O)CC(O)C(NCc2cccnc2)C1 (stereo not drawn) | 4.27% |
| CC(C)c1nc(-c2c(N)n(C)c(=O)n(C)c2=O)sc1C(=O)C(C)(C)C | 6.76% |
| CN(C)C(CNC(=O)C1CCN(S(=O)(=O)c2cccc(C(F)(F)F)c2)CC1)c1ccccc1 (stereo not drawn) | 5.49% |
| O=C(Nc1ccc(Cl)cc1Cl)C1CCCO1 (stereo not drawn) | 8.56% |
| N#CCCn1cc(/C=C2\NC(=S)N(c3ccccc3)C2=O)c(-c2ccc(-c3ccccc3)cc2)n1 | 0.455% |
| CCC(NC(=S)NCc1ccc(F)cc1)c1ccc(C)cc1 (stereo not drawn) | 13% |
| Cc1ccc(-n2c(O)c(C=Nc3ccc(S(=O)(=O)Nc4ncccn4)cc3)c3ccccc3c2=O)cc1C | -2.78% |
| Cc1ccc(Cn2c(Sc3nccc(C)n3)nc3c2c(=O)[nH]c(=O)n3C)cc1 | -0.0278% |
| COc1ccc(Br)cc1CN(C)C(=O)c1cnc(C)cn1 | 13.8% |
| O=C(CCS(=O)(=O)c1ccc(Br)s1)N1CCc2ccccc21 | -2.3% |
| CCCC1(c2ccccc2)NC(=O)N(C/C=C/Cl)C1=O (stereo not drawn) | 3.83% |
